Measurements reported in the antibiotic and cytotoxicity screens of Wong et al. (2023).
The other results are listed elsewhere or left out.

Experiments:
HSkMC = human skeletal muscle cells; assay: cytotoxicity call (relative viability < 0.9); settings: 10 µM
HepG2 = assay: cytotoxicity call (relative viability < 0.9); settings: 10 µM
S. aureus RN4220 = assay: growth inhibition call (relative growth <= 0.2); settings: 50 µM

Row | Compound | cytotoxicity call (HSkMC) | cytotoxicity call (HepG2) | growth inhibition call (S. aureus RN4220)
1 | Cc1noc(C)c1NC(=O)Nc1ccc2c(c1)C(=O)N([C@H](C)CO)C[C@@H](C)[C@@H](CN(C)Cc1ccccc1)OCCCC[C@H](C)O2 | inactive | inactive | inactive
2 | C[C@@H]1CN([C@H](C)CO)C(=O)c2cc(Br)cnc2O[C@@H]1CN(C)C(=O)Nc1ccc(F)cc1 | inactive | inactive | inactive
3 | COc1ccc(S(=O)(=O)Nc2ccc3c(c2)CC(=O)N([C@@H](C)CO)C[C@H](C)[C@H](CN(C)C(=O)NC(C)C)O3)cc1 | inactive | inactive | inactive
4 | Cn1cc(CN2CCn3nnc(CO)c3C2)cn1 | inactive | inactive | inactive
5 | O=C(CN1CCOCC1)N[C@H]1CC[C@@H](CCNC(=O)Nc2cc(F)ccc2F)O[C@H]1CO | inactive | inactive | inactive
6 | CC(C)NC(=O)Nc1ccc2c(c1)C(=O)N([C@H](C)CO)C[C@@H](C)[C@H](CN(C)S(=O)(=O)c1ccc(F)cc1)O2 | inactive | inactive | inactive
7 | c1cnc(N2CCN(Cc3ccc4c(c3)OCO4)CC2)nc1 | inactive | inactive | inactive
8 | C[C@H](CO)N1C[C@H](C)[C@H](CN(C)Cc2ccc(C(F)(F)F)cc2)Oc2ccc(NC(=O)Nc3cccc4ccccc34)cc2C1=O | inactive | active | inactive
9 | CO[C@H]1CN(C)C(=O)c2ccc(NC(=O)Nc3ccccc3)cc2OC[C@@H](C)N(C(=O)CN(C)C)C[C@@H]1C | inactive | inactive | inactive
10 | CCNC(=O)[C@@H]1N[C@@H]2c3ccc(-c4cccc(C(=O)N(C)C)c4)c(=O)n3C[C@@H]2[C@H]1CO | inactive | inactive | inactive
11 | COc1ccc(NC(=O)N(C)C[C@@H]2Oc3c(NC(=O)C4CCOCC4)cccc3C(=O)N([C@H](C)CO)C[C@H]2C)cc1 | inactive | inactive | inactive
12 | C[C@H](CO)N1C[C@H](C)[C@H](CN(C)Cc2ccc(Cl)c(Cl)c2)Oc2c(NS(=O)(=O)c3cccs3)cccc2C1=O | inactive | inactive | inactive
13 | Cc1noc(C)c1S(=O)(=O)N(C)C[C@@H]1OCCCC[C@H](C)Oc2ccc(NC(=O)Nc3ccc(C(F)(F)F)cc3)cc2C(=O)N([C@H](C)CO)C[C@@H]1C | inactive | active | inactive
14 | C[C@H]1CN([C@@H](C)CO)S(=O)(=O)c2ccc(C#CC3(O)CCCC3)cc2O[C@H]1CN(C)C(=O)Nc1ccccc1 | inactive | inactive | inactive
15 | CC(C)(C)NCC(O)COc1nsnc1N1CCOCC1.O=C(O)C=CC(=O)O (stereo not drawn) | inactive | inactive | inactive
16 | C[C@@H]1CCCCO[C@@H](CN(C)Cc2ccncc2)[C@@H](C)CN([C@@H](C)CO)C(=O)c2cc(NC(=O)Nc3ccccc3)ccc2O1 | inactive | inactive | inactive
17 | C[C@@H]1CN([C@@H](C)CO)C(=O)c2cccc(NC(=O)c3ccc(-c4nccs4)cc3)c2O[C@@H]1CN(C)Cc1ccccc1 | inactive | inactive | inactive
18 | CC(C)NC(=O)N(C)C[C@@H]1Oc2ccc(NS(=O)(=O)c3cccs3)cc2CC(=O)N([C@@H](C)CO)C[C@@H]1C | inactive | inactive | inactive
19 | C[C@@H]1CN([C@@H](C)CO)S(=O)(=O)c2ccc(C#Cc3ccccc3F)cc2O[C@@H]1CN(C)C(=O)Cc1ccncc1 | inactive | inactive | inactive
20 | C[C@H]1CN([C@@H](C)CO)C(=O)Cc2cc(NC(=O)CCN3CCOCC3)ccc2O[C@H]1CN(C)Cc1ccccc1 | inactive | inactive | inactive
21 | C[C@H](CO)N1C[C@H](C)[C@@H](CN(C)C(=O)Nc2ccc(C(F)(F)F)cc2)OCCCC[C@H](C)Oc2ccc(NC(=O)Nc3ccc(C(F)(F)F)cc3)cc2C1=O | inactive | inactive | inactive
22 | NCc1cnc2ccccc2c1 | inactive | inactive | inactive
23 | COc1ccc(NC(=O)Nc2ccc3c(c2)C(=O)N([C@H](C)CO)C[C@H](C)[C@@H](CN(C)C(=O)Nc2c(C)noc2C)OCCCC[C@H](C)O3)cc1 | inactive | inactive | inactive
24 | C[C@H](CO)N1C[C@H](C)[C@@H](CN(C)Cc2ccccc2)Oc2c(NC(=O)Nc3ccc(C(F)(F)F)cc3)cccc2C1=O | inactive | inactive | inactive
25 | C[C@@H]1CN([C@H](C)CO)C(=O)c2ccccc2-c2ccccc2CO[C@@H]1CN(C)C(=O)Nc1cccc(Cl)c1Cl | inactive | inactive | inactive
26 | COc1ccc(S(=O)(=O)N(C)C[C@@H]2OCCCC[C@H](C)Oc3ccc(NC(=O)Nc4ccc(C(F)(F)F)cc4)cc3C(=O)N([C@@H](C)CO)C[C@@H]2C)cc1 | inactive | active | inactive
